# The BET-seq Pho4 binding data (Le et al. 2018)
# The list shows a part of the results. These are noisy estimates, calculated here from bound and input reads.
# Target: T1, Pho4 (S. cerevisiae) (UniProt P07270)
# T1 sequence: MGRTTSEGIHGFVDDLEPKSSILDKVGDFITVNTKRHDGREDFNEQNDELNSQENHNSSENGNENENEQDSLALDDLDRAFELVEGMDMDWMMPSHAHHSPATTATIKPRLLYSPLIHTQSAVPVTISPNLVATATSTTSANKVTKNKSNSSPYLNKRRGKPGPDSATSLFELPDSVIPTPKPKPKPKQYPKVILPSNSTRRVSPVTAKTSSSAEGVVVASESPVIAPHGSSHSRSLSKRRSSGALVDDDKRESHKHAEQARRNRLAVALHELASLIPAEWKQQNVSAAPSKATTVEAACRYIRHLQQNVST
# Test: relative binding free energy (BET-seq); higher = weaker binding
# Details: reference: library average
row,Sequence,relative binding free energy [kcal/mol]
1,GGGGGCACGTGTGGTA,0
2,CGGGACACGTGGCATG,-0.02
3,TGGCACACGTGGAGTG,-0.06
4,ATCTTCACGTGGGTGT,0.2
5,GGAAACACGTGGGTTT,0.04
6,TAGTGCACGTGAGGCG,0.17
7,TATTTCACGTGTGCTT,0.32
8,CGAGTCACGTGCGGTG,0.03
9,GTTCGCACGTGTCGGG,0.03
10,ACGGGCACGTGGTATG,-0.34
11,CGTATCACGTGTGCGG,0.1
12,AGCTACACGTGTTGGG,0.12
13,ACGTGCACGTGGAGTG,-0.09
14,TATATCACGTGTCGAT,0.18
15,CTGATCACGTGGGGCG,0.02
16,GTTTACACGTGCCTGT,0.07
17,GGGGACACGTGTCGTA,0.14
18,AATATCACGTGTAAGG,0.12
19,TCATTCACGTGAGGTA,0.53
20,TGTTACACGTGGAGTC,0.08
21,ATGGCCACGTGGTATG,-0.14
22,TGTGTCACGTGATAAG,0.07
23,CTGTTCACGTGGGAAA,0.33

row,Sequence,relative binding free energy [kcal/mol]
1,GGGAGCACGTGGGAGT,-0.17
2,GGCCTCACGTGTGTTG,0.19
3,CGAGGCACGTGGAGTT,-0.18
4,GTCGTCACGTGGTGTG,0.06
5,GACAGCACGTGATGGG,0.24
6,CAGGGCACGTGCGTGG,-0.13
7,TATTACACGTGGGGAA,0.02
8,GAGTGCACGTGGCGGA,0.01
9,GTGGCCACGTGATTGT,0.03
10,AAGGGCACGTGAGGGA,0.14
11,TTATGCACGTGTATCG,-0.04
12,TGCTTCACGTGCGGTT,0.15
13,TGTTGCACGTGTTCAT,0.04
14,AAAAACACGTGAGGTG,0.25
15,GTGCTCACGTGTTCGG,0.26
16,AAGTTCACGTGGGGAG,0.14
17,TATGGCACGTGCAAGG,-0.05
18,TTCAGCACGTGTGGAG,-0.07
19,TGCAGCACGTGGTTAA,-0.08
20,AAAATCACGTGGTTTG,0.1
21,TCCGGCACGTGCGTGG,-0.16
22,ATGAGCACGTGTTGTA,-0.21
23,AGAAGCACGTGAGGGA,0.15

row,Sequence,relative binding free energy [kcal/mol]
1,ATTATCACGTGTCATT,0.17
2,AATGTCACGTGGCTGG,0.06
3,TGGGACACGTGAGAGG,0.35
4,TTAGTCACGTGAACTG,0.25
5,ATGCGCACGTGAGATT,0.21
6,AGAAACACGTGGGGAA,-0.01
7,GGTGACACGTGTTATT,-0.13
8,CAGTTCACGTGGGGCT,0.13
9,GTGATCACGTGTGAGC,0.34
10,GGGTCCACGTGGTGGC,0.13
11,TGGGTCACGTGATGCT,0.27
12,ATATTCACGTGGGGTT,0.09
13,ATGGTCACGTGGTGTC,0.04
14,TGTATCACGTGGCTGT,-0.01
15,CGAGTCACGTGGGGGA,-0.16
16,CGGGGCACGTGGCGTA,-0.27
17,TGTTCCACGTGGGGGA,-0.09
18,TTTCGCACGTGTTAGG,0.01
19,TGTTTCACGTGCAAAT,0.35
20,GTTGTCACGTGCAAAT,0.26
21,TCTGTCACGTGAGGGT,0.27
22,GGGGGCACGTGATAGT,0.16
23,TGAATCACGTGTATGA,0.24

row,Sequence,relative binding free energy [kcal/mol]
1,GCTAGCACGTGGGGCG,-0.1
2,CTTGACACGTGGAAGG,0.1
3,GTTAGCACGTGGTTTG,-0.12
4,GAGGGCACGTGAGATT,0.16
5,GTTAACACGTGTGTCG,0.12
6,ATATGCACGTGTGTTC,-0.04
7,GGGTACACGTGGTCAT,0.04
8,TTAGGCACGTGGGCGC,-0.3
9,AGTGGCACGTGGTGAG,-0.14
10,TATTTCACGTGTCGTT,0.19
11,ATTTTCACGTGGCGGG,0.24
12,TTCTACACGTGTATTT,0.07
13,TGGATCACGTGGCTAT,0.02
14,TGGGGCACGTGACTGG,-0.04
15,TCGTTCACGTGATAGG,0.34
16,GGGGTCACGTGGTGAA,0.1
17,TTCGGCACGTGTTACT,0.02
18,ACTTGCACGTGGTTAG,0.06
19,TATGACACGTGTTGGC,0.09
20,ATTTTCACGTGTCGGG,0.22
21,GGCCGCACGTGGGATG,-0.19
22,ATTAGCACGTGCTTGG,-0.06
23,GCTTACACGTGCGGTG,0.16

row,Sequence,relative binding free energy [kcal/mol]
1,TTAGGCACGTGATGTC,-0.02
2,AGGATCACGTGTTTGC,0.08
3,CTGTGCACGTGGATGG,-0.07
4,GGTAGCACGTGCTGGG,-0.07
5,GGAGTCACGTGATGGC,0.37
6,GATGGCACGTGGATAG,-0.04
7,GGGGACACGTGTTCGT,0.12
8,AGGTGCACGTGCGTCG,-0.09
9,AGTATCACGTGTAGTG,0.17
10,GTAAACACGTGGATGG,0.11
11,TGCAGCACGTGTATTT,0.04
12,CGTGTCACGTGTTTCG,0.04
13,GTGGGCACGTGATGTG,0.05
14,GGATTCACGTGAGTTC,0.47
15,CGGAGCACGTGAGGTT,0.13
16,TAATACACGTGGATAT,-0.02
17,GGGGTCACGTGCTGTC,0.1
18,TTGGTCACGTGGACTT,0.01
19,TCTAGCACGTGGTATA,-0.07
20,AGGGCCACGTGCAGGT,-0.19
21,AGTTTCACGTGTCTGG,0.36
22,GGGCTCACGTGCAGGG,0.16
23,GGTCACACGTGGTGGT,-0.11
